The labels stand for the following.
B1: CPEB3 Ribozyme (parent)
chain: UAACAGGGGGCCACAGCAGAAGCGUUCACGUCGCAGCCCCUGUCAGAUUCUGGUGAAUCUGCGAAUUCUGCUGUAUAUCUC

Read counts are not given, so values of variants with three or more changes are uncertain.

The series covers variants of B1. Kind of series: self-cleavage, relative activity (ratio to wild type); higher = more cleavage; in vitro, sequencing. In outline: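 For each CPEB3 ribozyme variant, relative activity is its cleaved/total read fraction divided by the unmutated ribozyme's. Barcoded error-prone PCR libraries were transcribed by T7 RNA polymerase (5 hours, 37°C) and held in DNase I for 15 min before an EDTA stop, with cleavage occurring throughout. Template-switching reverse transcription and Illumina sequencing were used to read the RNAs. A 5-read minimum applied, and results are the mean of three batches.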
On to UAACAGGGGGCCACAGCAGAAGCGUUCACGUCGCAGCCCCUGUCAGAUACUGGUGAAUCCGCGAAUUCAGCUGUAUAUCUC [U49A U60C U69A], for which the self-cleavage is 0.18.

In the case of UAACAGGGGGCCACAGCAGAAGCGUUCACGUCGCAGCCCCUGUCAGAUACUCGUGAAUCAGCGAAUUCUGCCGUAUAUCUC [U49A G52C U60A U72C], the self-cleavage worked out at 0.22.

For UAACAGGGGGCCACAGCAGAAGCGUUCACGUCGCAGCCCCUGUCAGAGUCUGGUGAAUCUGCGGAUCCUGCUGUAUAUCUC [U48G A64G U67C], the self-cleavage is 0.32.

On to UAACAGGGGGCCACAGCAGAAGCGUUCACGUCGCAGCCCCUGUCAGACUCUGGUGAAUCCGCGAAUUCUGCUGUAUACCUC [U48C U60C U78C], for which the self-cleavage came out at 0.35.

With UAACAGGGGGCCACAGCAGAAGCGUUCACGUCGCAGCCCCUGUCAGACUCUGGUGAAUCUGCGAAUCCAGCUGUAUAUCUC [U48C U67C U69A], the self-cleavage worked out at 0.32.

Consider UAACAGGGGGCCACAGCAGAAGCGUUCACGUCGCAGCCCCUGUCAGAUACUGGUGAAUCUGCGCAUUCUGCCGUAUAUCUC [U49A A64C U72C], for which the self-cleavage stood at 0.17.

In the case of UAACAGGGGGCCACAGCAGAAGCGUUCACGUCGCAGCCCCUGUCAGAUACAGGUGAAUCUGCGAAUUCUGCCGUAUAUCUC [U49A U51A U72C], the self-cleavage stood at 0.51.

Regarding UAACAGGGGGCCACAGCAGAAGCGUUCACGUCGCAGCCCCUGUCAGAUACUGGUGAAUCCGCGAAUUCUGCUGAAUAUCUC [U49A U60C U74A], the self-cleavage was determined as 0.3.

Regarding UAACAGGGGGCCACAGCAGAAGCGUUCACGUCGCAGCCCCUGUCAGACUCUGGUGAAUCUGCGAAUACAGCUGUAUAUCUC [U48C U67A U69A], the self-cleavage is 0.36.

On to UAACAGGGGGCCACAGCAGAAGCGUUCACGUCGCAGCCCCUGUCAGAUACCGGUGAAUCUGGGAAUUCUGCUGUAUAUCUC [U49A U51C C62G], for which the self-cleavage was found to be 0.14.

Take UAACAGGGGGCCACAGCAGAAGCGUUCACGUCGCAGCCCCUGUCAGAUACUGGUGAAUCUGCGGAUUCUGCUGUAUAUCUU [U49A A64G C81U]: the self-cleavage is 0.63.

For the variant UAACAGGGGGCCACAGCAGAAGCGUUCACGUCGCAGCCCCUGUCAGAUACUGGUGAGUCUGCGAUUUCUGCUGUAUAUCUC [U49A A57G A65U], the self-cleavage turned out to be 0.09.

UAACAGGGGGCCACAGCAGAAGCGUUCACGUCGCAGCCCCUGUCAGACUCUGGUGAAUCUGCGAAUUCCGCUGUAGAUCUC [U48C U69C U76G]: the self-cleavage was 0.39.

On to UAACAGGGGGCCACAGCAGAAGCGUUCACGUCGCAGCCCCUGUCAGAUACUGGUGAAUCUGCGUACUCUGCUGUAUAUCGC [U49A A64U U66C U80G], for which the self-cleavage was 0.15.

Take UAACAGGGGGCCACAGCAGAAGCGUUCACGUCGCAGCCCCUGUCAGAGUCCGGUGAGUCUGCGAAUUCUGCUGUUUAUCCC [U48G U51C A57G A75U U80C]: the self-cleavage is 0.25.

As for UAACAGGGGGCCACAGCAGAAGCGUUCACGUCGCAGCCCCUGUCAGAUACUGGUGGGUCUGCGAAUUCUGCUGUAUAUUUC [U49A A56G A57G C79U], the self-cleavage was determined as 0.26.

UAACAGGGGGCCACAGCAGAAGCGUUCACGUCGCAGCCCCUGUCAGACUCUGGUGAAGCUGCGAAUUCUGCUGUAUACCUC [U48C U58G U78C]: the self-cleavage stood at 0.25.

On to UAACAGGGGGCCACAGCAGAAGCGUUCACGUCGCAGCCCCUGUCAGACUCUGGUGAAUCCGCGAAUUCUGCAGUAUAUCUC [U48C U60C U72A], for which the self-cleavage was found to be 0.16.

Take UAACAGGGGGCCACAGCAGAAGCGUUCACGUCGCAGCCCCUGUCAGACUCUGGCGAAUCUGCGAAUUCUGCUGUACAUCUC [U48C U54C U76C]: the self-cleavage came out at 0.44.

For UAACAGGGGGCCACAGCAGAAGCGUUCACGUCGCAGCCCCUGUCAGAUACUAGUGUAUCUGCGAAUUCUGCUGUAUAUCUC [U49A G52A A56U], the self-cleavage stood at 1.09.

As to UAACAGGGGGCCACAGCAGAAGCGUUCACGUCGCAGCCCCUGUCAGACUCUGGUGAAUCUGCGAACUCUGCUGAAUAUCUC [U48C U66C U74A], the self-cleavage was determined as 0.19.

In the case of UAACAGGGGGCCACAGCAGAAGCGUUCACGUCGCAGCCCCUGUCAGAUACUGGUGAGUCUGCGAAUUCAGCUGUAUAUCUC [U49A A57G U69A], the self-cleavage came out at 0.19.

Take UAACAGGGGGCCACAGCAGAAGCGUUCACGUCGCAGCCCCUGUCAGAUACUGGUGAGUCUGCGAGUUCAGCUGUAUAUCUC [U49A A57G A65G U69A]: the self-cleavage amounted to 0.23.

On to UAACAGGGGGCCACAGCAGAAGCGUUCACGUCGCAGCCCCUGUCAGAGUCUGGUGAAUCUGCGAGUUCUGCUGUAUACCAC [U48G A65G U78C U80A], for which the self-cleavage came to 0.07.

Consider UAACAGGGGGCCACAGCAGAAGCGUUCACGUCGCAGCCCCUGUCAGACUCUGGUGAAAGUGCGAAUACUGCUGUAAAUCUC [U48C U58A C59G U67A U76A], for which the self-cleavage was 0.14.

Regarding UAACAGGGGGCCACAGCAGAAGCGUUCACGUCGCAGCCCCUGUCAGAUACUGGUGAAUCUGCGUAUUCUGCUGUAUACCUC [U49A A64U U78C], the self-cleavage was found to be 0.16.

Consider UAACAGGGGGCCACAGCAGAAGCGUUCACGUCGCAGCCCCUGUCAGAUACUGGUGAAUCUGCGAAUACUGCUGUAUACCUC [U49A U67A U78C], for which the self-cleavage is 0.23.

Take UAACAGGGGGCCACAGCAGAAGCGUUCACGUCGCAGCCCCUGUCAGACUCUGGUGAACCUGCGAACUCUGCUGUAUAUCUC [U48C U58C U66C]: the self-cleavage was 0.12.

For UAACAGGGGGCCACAGCAGAAGCGUUCACGUCGCAGCCCCUGUCAGAUACUGGUGAAUCAGCGGAUUCUGCUGUAUAUCUC [U49A U60A A64G], the self-cleavage was 0.2.

On to UAACAGGGGGCCACAGCAGAAGCGUUCACGUCGCAGCCCCUGUCAGACUCUGGUGAAUCAGCGGAUUCUGCUGUAUAUCUC [U48C U60A A64G], for which the self-cleavage was determined as 0.26.

Take UAACAGGGGGCCACAGCAGAAGCGUUCACGUCGCAGCCCCUGUCAGAUACUGGUGAACCUGCGAGUUCUGCUGUAUAUCUC [U49A U58C A65G]: the self-cleavage worked out at 0.24.

Regarding UAACAGGGGGCCACAGCAGAAGCGUUCACGUCGCAGCCCCUGUCAGAUACCGGUGAUUCUGCGUAUUCUGCUGUAUAUCUC [U49A U51C A57U A64U], the self-cleavage stood at 0.39.

As for UAACAGGGGGCCACAGCAGAAGCGUUCACGUCGCAGCCCCUGUCAGAUACCGGUGAAUCUGCGAAUUCUGCUGUAAAUCUC [U49A U51C U76A], the self-cleavage came out at 0.38.

Consider UAACAGGGGGCCACAGCAGAAGCGUUCACGUCGCAGCCCCUGUCAGAUACUGGUGAAUCCACGAAUUCUGCUGUAUAUCUC [U49A U60C G61A], for which the self-cleavage was determined as 0.15.

The values above are taken from the RNAGym collection of RNA variant scans (doi:10.1093/nar/gkz1192).
